We go through 31 molecules from article PMC9911399, “Two distinct binding modes provide the RNA-binding protein RbFox with extraordinary sequence specificity”.

Positions count from the first letter of the chain named. Some of the results follow.

The labels stand for the following.
B1: CCUGACC (DNA:RNA)
RNA: GGGAGACCGGAAUUCAGAUUGUCCCCUGACCUUAAAUCCCGUCGUAGCCACCA
DNA 1: CAATCTGAATTCCGGTCTCCC
DNA 2: TGGTGGCTACGACGGGATT
B2: UGCUGCG (DNA:RNA)
RNA: B1 RNA with C25U, C26G, U27C, G28U, A29G, C31G
DNA 1: CAATCTGAATTCCGGTCTCCC
DNA 2: TGGTGGCTACGACGGGATT
B3: ACCAUAG (DNA:RNA)
RNA: B1 RNA with C25A, U27C, G28A, A29U, C30A, C31G
DNA 1: CAATCTGAATTCCGGTCTCCC
DNA 2: TGGTGGCTACGACGGGATT
B4: UUUUAAG (DNA:RNA)
RNA: B1 RNA with C25U, C26U, G28U, C30A, C31G
DNA 1: CAATCTGAATTCCGGTCTCCC
DNA 2: TGGTGGCTACGACGGGATT
B5: AAAACUA (DNA:RNA)
RNA: GGGAGACCGGAAUUCAGAUUGUCCAAAACUAUUAAAUCCCGUCGUAGCCACCA
DNA 1: CAATCTGAATTCCGGTCTCCC
DNA 2: TGGTGGCTACGACGGGATT
B6: UUCUCAC (DNA:RNA)
RNA: B5 RNA with A25U, A26U, A27C, A28U, U30A, A31C
DNA 1: CAATCTGAATTCCGGTCTCCC
DNA 2: TGGTGGCTACGACGGGATT
B7: ACAUACG (DNA:RNA)
RNA: B1 RNA with C25A, U27A, G28U, C31G
DNA 1: CAATCTGAATTCCGGTCTCCC
DNA 2: TGGTGGCTACGACGGGATT
B8: CAUAGCC (DNA:RNA)
RNA: B1 RNA with C26A, G28A, A29G
DNA 1: CAATCTGAATTCCGGTCTCCC
DNA 2: TGGTGGCTACGACGGGATT
B9: GUGACUC (DNA:RNA)
RNA: B5 RNA with A25G, A26U, A27G, A31C
DNA 1: CAATCTGAATTCCGGTCTCCC
DNA 2: TGGTGGCTACGACGGGATT
B10: UAAGCGA (DNA:RNA)
RNA: B5 RNA with A25U, A28G, U30G
DNA 1: CAATCTGAATTCCGGTCTCCC
DNA 2: TGGTGGCTACGACGGGATT
B11: GAGUCGA (DNA:RNA)
RNA: B5 RNA with A25G, A27G, A28U, U30G
DNA 1: CAATCTGAATTCCGGTCTCCC
DNA 2: TGGTGGCTACGACGGGATT
B12: AACUCGU (DNA:RNA)
RNA: B5 RNA with A27C, A28U, U30G, A31U
DNA 1: CAATCTGAATTCCGGTCTCCC
DNA 2: TGGTGGCTACGACGGGATT
B13: GAACGUU (DNA:RNA)
RNA: B5 RNA with A25G, A28C, C29G, A31U
DNA 1: CAATCTGAATTCCGGTCTCCC
DNA 2: TGGTGGCTACGACGGGATT
B14: GUGCUGG (DNA:RNA)
RNA: GGGAGACCGGAAUUCAGAUUGUCCGUGCUGGUUAAAUCCCGUCGUAGCCACCA
DNA 1: CAATCTGAATTCCGGTCTCCC
DNA 2: TGGTGGCTACGACGGGATT
B15: GUUGAUA (DNA:RNA)
RNA: B1 RNA with C25G, C26U, C30U, C31A
DNA 1: CAATCTGAATTCCGGTCTCCC
DNA 2: TGGTGGCTACGACGGGATT
B16: ACGUACU (DNA:RNA)
RNA: B1 RNA with C25A, U27G, G28U, C31U
DNA 1: CAATCTGAATTCCGGTCTCCC
DNA 2: TGGTGGCTACGACGGGATT
B17: CACACGU (DNA:RNA)
RNA: B5 RNA with A25C, A27C, U30G, A31U
DNA 1: CAATCTGAATTCCGGTCTCCC
DNA 2: TGGTGGCTACGACGGGATT
B18: ACGUAUC (DNA:RNA)
RNA: B1 RNA with C25A, U27G, G28U, C30U
DNA 1: CAATCTGAATTCCGGTCTCCC
DNA 2: TGGTGGCTACGACGGGATT
B19: GAACCAG (DNA:RNA)
RNA: B5 RNA with A25G, A28C, U30A, A31G
DNA 1: CAATCTGAATTCCGGTCTCCC
DNA 2: TGGTGGCTACGACGGGATT
B20: ACUCGCA (DNA:RNA)
RNA: B1 RNA with C25A, G28C, A29G, C31A
DNA 1: CAATCTGAATTCCGGTCTCCC
DNA 2: TGGTGGCTACGACGGGATT
B21: CUAAAUU (DNA:RNA)
RNA: B5 RNA with A25C, A26U, C29A, A31U
DNA 1: CAATCTGAATTCCGGTCTCCC
DNA 2: TGGTGGCTACGACGGGATT
B22: UUUUCGG (DNA:RNA)
RNA: B14 RNA with G25U, G27U, C28U, U29C
DNA 1: CAATCTGAATTCCGGTCTCCC
DNA 2: TGGTGGCTACGACGGGATT
B23: ACAGCGG (DNA:RNA)
RNA: B5 RNA with A26C, A28G, U30G, A31G
DNA 1: CAATCTGAATTCCGGTCTCCC
DNA 2: TGGTGGCTACGACGGGATT
B24: CUUCGAA (DNA:RNA)
RNA: B1 RNA with C26U, G28C, A29G, C30A, C31A
DNA 1: CAATCTGAATTCCGGTCTCCC
DNA 2: TGGTGGCTACGACGGGATT
B25: CCAGCAA (DNA:RNA)
RNA: B5 RNA with A25C, A26C, A28G, U30A
DNA 1: CAATCTGAATTCCGGTCTCCC
DNA 2: TGGTGGCTACGACGGGATT
B26: UGUAUGA (DNA:RNA)
RNA: B5 RNA with A25U, A26G, A27U, C29U, U30G
DNA 1: CAATCTGAATTCCGGTCTCCC
DNA 2: TGGTGGCTACGACGGGATT
B27: AUGCGAU (DNA:RNA)
RNA: B14 RNA with G25A, U29G, G30A, G31U
DNA 1: CAATCTGAATTCCGGTCTCCC
DNA 2: TGGTGGCTACGACGGGATT
B28: UAACUUU (DNA:RNA)
RNA: B5 RNA with A25U, A28C, C29U, A31U
DNA 1: CAATCTGAATTCCGGTCTCCC
DNA 2: TGGTGGCTACGACGGGATT
B29: CUAUAAU (DNA:RNA)
RNA: B1 RNA with C26U, U27A, G28U, C30A, C31U
DNA 1: CAATCTGAATTCCGGTCTCCC
DNA 2: TGGTGGCTACGACGGGATT
B30: GUCGUAG (DNA:RNA)
RNA: B14 RNA with G27C, C28G, G30A
DNA 1: CAATCTGAATTCCGGTCTCCC
DNA 2: TGGTGGCTACGACGGGATT
B31: UAACUAG (DNA:RNA)
RNA: B14 RNA with G25U, U26A, G27A, G30A
DNA 1: CAATCTGAATTCCGGTCTCCC
DNA 2: TGGTGGCTACGACGGGATT

This experiment deals with T1, RBFOX1 RRM (Homo sapiens, UniProt Q9NWB1 109-208).
T1 sequence: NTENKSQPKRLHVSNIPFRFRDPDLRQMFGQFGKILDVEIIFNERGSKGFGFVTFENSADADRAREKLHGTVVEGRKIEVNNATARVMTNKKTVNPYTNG
Put plainly: EMSA; HiTS-Eq, 1 nM pool, 10 min; buffer printed only for the single-RNA assays: 10 mM Tris pH 7.5, 150 mM NaCl, 3.4 mM EDTA, 0.001% NP-40, 30 C. The conditions noted are these: tags: His6 N-terminal (pET28a); label: 5' 32P. A digest of the protocol:
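Purified wild-type or mutant RbFox RRM at increasing concentrations was equilibrated with 1 nM of 5′-radiolabelled RNA carrying 7 randomized nucleotides for 10 min in 50 µL. Unbound RNA was separated by 8% native PAGE and sequenced. Relative association constants came from read-count changes of each RNA species compared with the control reaction, normalised to the cognate motif.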
(In general: In EMSA bound probe runs differently from free probe, usually more slowly.)
Consider B1, for which the binding signal is 0.00582 KA relative to UGCAUGU. For the molecule B2, the binding signal is 0.0333 KA relative to UGCAUGU. In the case of B3, the binding signal is 0.00248 KA relative to UGCAUGU. On to B4, for which the binding signal was 0.0134 KA relative to UGCAUGU. Turning to B5, the binding signal is 0.00178 KA relative to UGCAUGU. On to B6, for which the binding signal was 0.00382 KA relative to UGCAUGU. The result for B7 reads 0.003 KA relative to UGCAUGU; that for B8, 0.00373 KA relative to UGCAUGU; that for B9, 0.0185 KA relative to UGCAUGU. B10: the binding signal was 0.0108 KA relative to UGCAUGU.

On to B11, for which the binding signal is 0.017 KA relative to UGCAUGU. For the molecule B12, the binding signal is 0.00286 KA relative to UGCAUGU. As to B13, the binding signal was 0.0166 KA relative to UGCAUGU.

B14: the binding signal is 0.0295 KA relative to UGCAUGU. With B15, the binding signal was 0.012 KA relative to UGCAUGU. As to B16, the binding signal was 0.00208 KA relative to UGCAUGU. Consider B17, for which the binding signal was 0.0014 KA relative to UGCAUGU. B18: the binding signal was 0.00496 KA relative to UGCAUGU.

For B19, the binding signal was 0.0045 KA relative to UGCAUGU. As to B20, the binding signal was 0.0123 KA relative to UGCAUGU. On to B21, for which the binding signal is 0.00392 KA relative to UGCAUGU. Take B22: the binding signal is 0.0135 KA relative to UGCAUGU. Consider B23, for which the binding signal was 0.00644 KA relative to UGCAUGU.

As to B24, the binding signal is 0.0115 KA relative to UGCAUGU. With B25, the binding signal was 0.00261 KA relative to UGCAUGU. B26: the binding signal is 0.0267 KA relative to UGCAUGU.

As to B27, the binding signal is 0.00995 KA relative to UGCAUGU. With B28, the binding signal is 0.00864 KA relative to UGCAUGU. On to B29, for which the binding signal was 0.00317 KA relative to UGCAUGU. As for B30, the figure is 0.0144 KA relative to UGCAUGU. As for B31, the figure is 0.00442 KA relative to UGCAUGU.
